Experimental data reported in the RNAGym collection of RNA variant scans (doi:10.7554/elife.90254).
The source gives no read counts; variants with many changes may rest on few reads.

B1: LINE1-mini (parent)
chain: GGCAGAGCUCAACACAGCGUGGCAAAGUGGCUGUGGCUAGACUGCC

Variants of: B1
Experiment: self-cleavage, relative activity (ratio to wild type); higher = more cleavage; in vitro, sequencing; the parent is a self-cleaving ribozyme

Variant	self-cleavage
G2U G33C G40C	0.01
C3A A4C A26C	0.25
G2U C13U G22C C45A C46A	0.12
G2U C23G A26U C45U	0.05
G2U C10A G17U	0
G2U G5A C15A	0.05
G2U C15U G21C G22C G33U	0.07
G2U G22U C37U U38C	0.03
G2U C10A G19A C23G U34G	0
G2U C13A A14G G30C	0.03
G2U U9C A11U A26C U34C U38G C45U	0
G2U C13U A16G G17A A39G	0.06
G2U C37U A39G	0.01
G2U G5C A6G G7U A11C A16G G36U	0.01
G2U G5C C10G G21A U38A G44U	0.01
G2U C8G C31A G35U G44A	0.05
G2U G5A A6U A11C	0.01
G2U G7A U20C G27A G29U	0.02
G2U C8U U20C G40U	0.02
C3A A4C G7C U34G	0.02
G2U G7C U20C	0.02
G2U G7C G19A C23G A26C C31A G33U A41U	0.02
G2U U28G G40A	0
G2U G19U G44A	0.13

Variant	self-cleavage
G2U C10A G22A G27U C45A	0.01
G2U G7A G17A G27A U43G	0.15
G2U G22U A24G C31U	0.07
G2U C31G A41G	0.03
G2U G33A U43A C45U	0.04
G2U C13A C45U	0.01
G2U G29A U32G G40C	0
G2U C10A A24C G29U C37G	0.01
G2U G5A G7A C10U A11C A16C	0.01
C3A A4C C15U U43C	0.35
G2U G5U A11U A39U G40U	0
G2U C18A U20C	0
G2U G17C A24G U38C	0.01
G2U C10A G22A G27A	0.01
G2U G7A C8U G22A C45U	0.03
G2U G5U U9G A14U C45A	0
G2U G5C G40A C46A	0.02
G2U G7A C37A C45A	0.05
G2U G30U G35A	0.12
G2U C8A G33U	0.03
G2U C8G G22C C37G	0.01
G2U G5U G29A G36A A39C	0
G2U G21A C23A G29C	0.1
G2U G5U G29U	0.02

Variant	self-cleavage
G2U C13A A25G G30A G35A	0.01
G2U C3U C46U	0.16
G2U C8U G29U G36U	0.04
G2U C23U G27U	0.01
G2U U34G A39C	0
G2U G19U C23A G33C	0.02
G2U G7A A12U C37A U43A	0.04
G2U C15A C23U A26U	0.03
G2U U34A G44U	0.03
G2U U34G G40A	0.03
G2U C10G G44A	0.01
G2U C10U G22A	0.01
G2U G17U U20G U32C	0.03
G2U C8A C13A G19U U38A	0.22
G2U G17U C23G	0.02
G2U G21C C31U	0.02
G2U U9A U28G C31A U32G	0.02
G2U G7A U9G A11C G17A	0
G2U C15G U28A C31G G33C	0.01
G2U G19C G22A	0.51
G2U G35C C42A	0.03
G2U G7A G30A	0.08
G2U C8A C23U	0.09
G2U C15U C31U	0.01

Variant	self-cleavage
G2U U28A G33U C45G	0.02
G2U C13A C23U G35C G40A C42U	0.04
G2U G22U C45U	0.07
G2U G17A G22U C42U	0.02
C3A A4C A16G	0.06
G2U C10A A12C A14C	0
G2U C15G G35C G40C U43A	0
G2U G21U G33U	0.01
C3A A4C A11C	0.02
C3A A4C A11U	0.04
G2U G5A C8A G17A C18A	0.06
G2U U20C G22C	0.22
G2U C18A A25U G44U	0.03
G2U C37G G40U	0.01
C3A A4C A6G A16G G29U	0.15
G2U C8G G17A	0.01
G2U G7A U9C C31A	0.04
G2U G21U G44C	0.01
G2U G29U C37U G40U	0.02
G2U C15A C23G	0.02
G2U C10G C15A A16C A39U	0.02
G2U C8A G19A A24U C37G	0.21
G2U G29C U32G G40A C45A	0
G2U C13G G29A C31U U32A	0.01

Variant	self-cleavage
G2U G21C A24U G29U G33A G36U	0.02
G2U C13A G35U	0.03
G2U G7U C15U C37G A39U	0.08
G2U G19C G35C C45U	0.02
G2U C13G G27C C31U	0.06
G2U C10G A16C G22A G33C	0.01
G2U C13U U32C	0.04
G2U C15U A25G A26C G33C U38A	0
G2U G5U G40C	0.04
G2U C31G G36C C46U	0.02
G2U C15U G40A U43C	0.01
G2U C8U A14G U28C G29U U34A C37U	0.03
G2U U20G G44A	0.04
G2U G17A U34G	0.21
G2U G22C A41G	0.01
G2U U32G C42A	0.02
G2U C8G C10U G30U	0.02
G2U G17A U20C G21U G22A G36A	0.02
G2U G33A C37U	0.01
G2U U9C G22C	0.01
G2U C8A G30A C45G	0.06
G2U C8U G22C U32G A39U	0.03
G2U G5C C15G C18G	0.03
G2U C13U U20C	0.03

Variant	self-cleavage
G2U C3U C13U G30C A41U	0.05
G2U G35A G40U	0.06
G2U G30U G33U	0.03
G2U G5A G33A	0.03
G2U U32C G35A G36A	0.04
G2U U9A A25U	0.01
G2U G35U C46A	0.35
G2U C15U A16U C23A U32G	0.04
G2U G5C A12C G22A A25G C37G	0
G2U G7U U32G C45U	0.01
C3A A4C G5C G30U C31G U43C	0.03
G2U U9A A16U C31A U38G	0.02
G2U C3U G30A U38C A41C	0.03
G2U G5A U38C C45A	0
G2U G19A G35A	0.11
G2U G17A C18G U38C	0.03
G2U G35C C46G	0.01
G2U G7U C15G G35U	0.3
G2U C18U G30A G33A	0.01
G2U C18U A25G	0.02
G2U G30U G33U G44U	0.04
G2U G36U U38C A41G	0.04
G2U U9C G33U A39G G40A A41C C42U	0
G2U C8U C15U G36U A39U U43C	0.04

Variant	self-cleavage
G2U C8U G35U	0.12
G2U U9C U38A	0
G2U C15G U20G A26U C37A C46U	0.01
G2U G17A A41G	0
G2U G7C G22U U32G G44A	0.16
C3A A4C G7U C31U U32G G33C	0.58
G2U C18A G33U	0.04
G2U C8A A14G C15U A41C	0.01
G2U G5U C37U A39C G40A	0
G2U G29C U32A G36A	0.05
G2U G19A A24G	0.06
G2U G17A A25C	0.05
G2U G21C A24G G44U	0.05
G2U U28C G40C	0.02
G2U U34A C46U	0.03
G2U C8A G30U G35C	0.08
G2U G7C G21U G40U	0.04
G2U G40A C46A	0.04
G2U G5A C13U	0.04
G2U G19U G29U G36C G44U	0.03
G2U G5A C18U U38C	0.03
G2U C13A U38A G40A	0.01
G2U C37A C46G	0.06
